From the supplement of paper PMC4604168 (melanoma cell lines)
This is one part of the list. Repeats are few or missing, and single values can be far off.

What was measured:
Test in all cases: cell count relative to DMSO control; melanoma cells; higher = more viable cells
Conditions in all cases: library dose: standard library concentration; 72 h
A101D = tested on: A101D
A2058 = tested on: A2058
A375 = tested on: A375
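Note: cells treated in 1,536-well plates, then fixed and DAPI-stained, with nuclei counted from automated high-throughput microscope images.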

| SMILES | cell count (A101D) [%] | cell count (A2058) [%] | cell count (A375) [%] |
| --- | --- | --- | --- |
| CNC(=O)c1cc(Oc2ccc(NC(=O)Nc3ccc(Cl)c(C(F)(F)F)c3)cc2)ccn1 [sorafenib] + O=C(Nc1cccc(Cl)c1)Nc1ncc(CCNc2ncnc3ccsc23)s1 [SNS314] (first compound 2 µM, partner dose 0.004 µM) | 75.9 | 55.8 | 96.8 |
| CNC(=O)c1cc(Oc2ccc(NC(=O)Nc3ccc(Cl)c(C(F)(F)F)c3)cc2)ccn1 [sorafenib] + OCc1c[nH]c2ccccc12 [Indole-3-carbinol] (first compound 2 µM, partner dose 4 µM) | 97.4 | 109 | 100 |
| C[C@@H](Oc1cc(-c2cnn(C3CCNCC3)c2)cnc1N)c1c(Cl)ccc(F)c1Cl [Crizotinib] + Nc1nc(F)nc2c1ncn2[C@@H]1O[C@H](CO)[C@@H](O)[C@@H]1O [fludarabine] (first compound 1 µM, partner dose 1 µM) | 96.8 | 92.7 | 30.4 |
| C[C@@H](Oc1cc(-c2cnn(C3CCNCC3)c2)cnc1N)c1c(Cl)ccc(F)c1Cl [Crizotinib] + Cc1ccc(NC(=O)c2cccc(N(C)C)c2)cc1NC(=O)c1ccc(O)cc1 [ZM336372] (first compound 1 µM, partner dose 10 µM) | 62.4 | 77 | 102 |
| C[C@@H](Oc1cc(-c2cnn(C3CCNCC3)c2)cnc1N)c1c(Cl)ccc(F)c1Cl [Crizotinib] + Nc1cccc2c1CN(C1CCC(=O)NC1=O)C2=O [lenalidomide] (first compound 1 µM, partner dose 5 µM) | 101 | 85.3 | 100 |
| C[C@@H](Oc1cc(-c2cnn(C3CCNCC3)c2)cnc1N)c1c(Cl)ccc(F)c1Cl [Crizotinib] + COc1cc2c(Oc3ccc4[nH]c(C)cc4c3F)ncnc2cc1OCCCN1CCCC1 [cediranib] (first compound 1 µM, partner dose 2 µM) | 89.7 | 97.9 | 100 |
| C=CCNC1=C2C[C@@H](C)C[C@H](OC)[C@H](O)[C@@H](C)/C=C(\C)[C@H](OC(N)=O)[C@@H](OC)/C=C\C=C(/C)C(=O)NC(=CC1=O)C2=O [Tanespimycin] + NC(=O)Nc1cc(-c2cccc(F)c2)sc1C(=O)N[C@H]1CCCNC1 [AZD7762] (first compound 0.01 µM, partner dose 0.1 µM) | 51.9 | 7.97 | 64 |
| C[C@@H](Oc1cc(-c2cnn(C3CCNCC3)c2)cnc1N)c1c(Cl)ccc(F)c1Cl [Crizotinib] + Nc1ncn([C@H]2C[C@H](O)[C@@H](CO)O2)c(=O)n1 [decitabine] (first compound 1 µM, partner dose 0.5 µM) | 76.6 | 71.8 | 104 |
| CNC(=O)c1cc(Oc2ccc(NC(=O)Nc3ccc(Cl)c(C(F)(F)F)c3)cc2)ccn1 [sorafenib] + NC(=O)Nc1cc(-c2cccc(F)c2)sc1C(=O)N[C@H]1CCCNC1 [AZD7762] (first compound 2 µM, partner dose 0.1 µM) | 66.8 | 117 | 69.5 |
| C=CCNC1=C2C[C@@H](C)C[C@H](OC)[C@H](O)[C@@H](C)/C=C(\C)[C@H](OC(N)=O)[C@@H](OC)/C=C\C=C(/C)C(=O)NC(=CC1=O)C2=O [Tanespimycin] + COc1ccc(-c2ccc3c(N4CCOCC4)nc(N4C[C@@H](C)O[C@@H](C)C4)nc3n2)cc1CO [KU0063794] (first compound 0.01 µM, partner dose 0.1 µM) | 81.4 | 82.3 | 111 |
| C[C@@H](Oc1cc(-c2cnn(C3CCNCC3)c2)cnc1N)c1c(Cl)ccc(F)c1Cl [Crizotinib] + CO[C@@H]1[C@H](N(C)C(=O)c2ccccc2)C[C@H]2O[C@]1(C)n1c3ccccc3c3c4c(c5c6ccccc6n2c5c31)C(=O)NC4 [Midostaurin] (first compound 1 µM, partner dose 0.4 µM) | 75.3 | 42.3 | 76.1 |
| CNC(=O)c1cc(Oc2ccc(NC(=O)Nc3ccc(Cl)c(C(F)(F)F)c3)cc2)ccn1 [sorafenib] + CN(C)S(=O)(=O)c1ccc2c(c1)/C(=C/c1cc3c([nH]1)CCCC3)C(=O)N2 [SU6656] (first compound 2 µM, partner dose 2 µM) | 83.7 | 92 | 120 |
| CNC(=O)c1cc(Oc2ccc(NC(=O)Nc3ccc(Cl)c(C(F)(F)F)c3)cc2)ccn1 [sorafenib] + Cn1cncc1[C@@](N)(c1ccc(Cl)cc1)c1ccc2c(c1)c(-c1cccc(Cl)c1)cc(=O)n2C [tipifarnib] (first compound 2 µM, partner dose 0.05 µM) | 99.8 | 113 | 124 |
| CNC(=O)c1cc(Oc2ccc(NC(=O)Nc3ccc(Cl)c(C(F)(F)F)c3)cc2)ccn1 [sorafenib] + Cn1c(Nc2ccc(C(F)(F)F)cc2)nc2cc(Oc3ccnc(-c4ncc(C(F)(F)F)[nH]4)c3)ccc21 [CHIR265] (first compound 2 µM, partner dose 0.4 µM) | 56.8 | 66.1 | 72.7 |
| CN1CCN(c2ccc3nc(-c4c(N)c5c(F)cccc5[nH]c4=O)[nH]c3c2)CC1 [Dovitinib] + O=C(CCCCCCC(=O)Nc1ccccc1)NO [vorinostat] (first compound 0.5 µM, partner dose 0.4 µM) | 70.8 | 32.9 | 66.3 |
| C=CCNC1=C2C[C@@H](C)C[C@H](OC)[C@H](O)[C@@H](C)/C=C(\C)[C@H](OC(N)=O)[C@@H](OC)/C=C\C=C(/C)C(=O)NC(=CC1=O)C2=O [Tanespimycin] + CN(C)S(=O)(=O)c1ccc2c(c1)/C(=C/c1cc3c([nH]1)CCCC3)C(=O)N2 [SU6656] (first compound 0.01 µM, partner dose 2 µM) | 62.1 | 74.6 | 110 |
| C[C@@H](Oc1cc(-c2cnn(C3CCNCC3)c2)cnc1N)c1c(Cl)ccc(F)c1Cl [Crizotinib] + O=C(O)c1ccc2c(c1)nc(Nc1cccc(Cl)c1)c1ccncc12 [CX4945] (first compound 1 µM, partner dose 2 µM) | 75.4 | 62.5 | 75.1 |
| CS(=O)(=O)CCNCc1ccc(-c2ccc3ncnc(Nc4ccc(OCc5cccc(F)c5)c(Cl)c4)c3c2)o1 [lapatinib] + CN(C)S(=O)(=O)c1ccc2c(c1)/C(=C/c1cc3c([nH]1)CCCC3)C(=O)N2 [SU6656] (first compound 4 µM, partner dose 2 µM) | 64.1 | 55.4 | 174 |
| CNC(=O)c1cc(Oc2ccc(NC(=O)Nc3ccc(Cl)c(C(F)(F)F)c3)cc2)ccn1 [sorafenib] + Clc1ccc(Nc2nnc(Cc3ccncc3)c3ccccc23)cc1 [vatalanib] (first compound 2 µM, partner dose 10 µM) | 93.7 | 70.6 | 87.1 |
| CS(=O)(=O)CCNCc1ccc(-c2ccc3ncnc(Nc4ccc(OCc5cccc(F)c5)c(Cl)c4)c3c2)o1 [lapatinib] + NCC(=O)Nc1ccc(-n2nc(C(F)(F)F)cc2-c2ccc3c(ccc4ccccc43)c2)cc1 [OSU03012] (first compound 4 µM, partner dose 5 µM) | 13.8 | 51.8 | 27.4 |
| CS(=O)(=O)CCNCc1ccc(-c2ccc3ncnc(Nc4ccc(OCc5cccc(F)c5)c(Cl)c4)c3c2)o1 [lapatinib] + C=CCNC1=C2C[C@@H](C)C[C@H](OC)[C@H](O)[C@@H](C)/C=C(\C)[C@H](OC(N)=O)[C@@H](OC)/C=C\C=C(/C)C(=O)NC(=CC1=O)C2=O [Tanespimycin] (first compound 4 µM, partner dose 0.01 µM) | 49.5 | 71.1 | 112 |
| CNC(=O)c1cc(Oc2ccc(NC(=O)Nc3ccc(Cl)c(C(F)(F)F)c3)cc2)ccn1 [sorafenib] + Nc1ncn([C@H]2C[C@H](O)[C@@H](CO)O2)c(=O)n1 [decitabine] (first compound 2 µM, partner dose 0.5 µM) | 89.2 | 82.4 | 106 |
| CNC(=O)c1cc(Oc2ccc(NC(=O)Nc3ccc(Cl)c(C(F)(F)F)c3)cc2)ccn1 [sorafenib] + CCCS(=O)(=O)Nc1ccc(F)c(C(=O)c2c[nH]c3ncc(Cl)cc23)c1F [PLX4720] (first compound 2 µM, partner dose 0.4 µM) | 71.7 | 96.2 | 74.8 |
| C=CCNC1=C2C[C@@H](C)C[C@H](OC)[C@H](O)[C@@H](C)/C=C(\C)[C@H](OC(N)=O)[C@@H](OC)/C=C\C=C(/C)C(=O)NC(=CC1=O)C2=O [Tanespimycin] + C[C@@H]1CCN(C(=O)CC#N)C[C@@H]1N(C)c1ncnc2[nH]ccc12 [CP690550] (first compound 0.01 µM, partner dose 5 µM) | 85.9 | 71.8 | 101 |
| CN1CCN(c2ccc3nc(-c4c(N)c5c(F)cccc5[nH]c4=O)[nH]c3c2)CC1 [Dovitinib] + CC(C)(C)c1cnc(CSc2cnc(NC(=O)C3CCNCC3)s2)o1 [SNS-032] (first compound 0.5 µM, partner dose 0.05 µM) | 63.9 | 43.3 | 72.1 |
| C[C@@H](Oc1cc(-c2cnn(C3CCNCC3)c2)cnc1N)c1c(Cl)ccc(F)c1Cl [Crizotinib] + Clc1ccc(Nc2nnc(Cc3ccncc3)c3ccccc23)cc1 [vatalanib] (first compound 1 µM, partner dose 10 µM) | 84.3 | 68 | 86.4 |
| C=CCNC1=C2C[C@@H](C)C[C@H](OC)[C@H](O)[C@@H](C)/C=C(\C)[C@H](OC(N)=O)[C@@H](OC)/C=C\C=C(/C)C(=O)NC(=CC1=O)C2=O [Tanespimycin] + COc1cc2c(Oc3ccc4[nH]c(C)cc4c3F)ncnc2cc1OCCCN1CCCC1 [cediranib] (first compound 0.01 µM, partner dose 2 µM) | 83.6 | 59.5 | 109 |
